Test results reported in the supplement of paper PMC4166925.
± gives the standard deviation of the averaged measurements. Over roughly 33,000 sequences, “E-score (dimensionless, -0.5 to 0.5)” has its median near -0.046; the highest 2% begin near 0.36. Some of the results follow.

tested on: T1, SpTbr T-box DNA-binding domain (GST fusion); test: PBM E-score of 8-mer (E-score (dimensionless, -0.5 to 0.5)); Tbr is Tbrain of the sea star Patiria miniata (Pm) or the sea urchin Strongylocentrotus purpuratus (Sp); higher = stronger binding preference; most listed sequences are background and not binding sites; settings: the construct has about 5 more residues each side
T1 sequence: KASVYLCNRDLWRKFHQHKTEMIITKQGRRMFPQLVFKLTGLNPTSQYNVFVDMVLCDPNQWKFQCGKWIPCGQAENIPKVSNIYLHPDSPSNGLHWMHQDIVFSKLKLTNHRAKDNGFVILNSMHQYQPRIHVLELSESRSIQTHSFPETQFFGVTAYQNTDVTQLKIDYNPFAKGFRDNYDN
How it was run: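 Using the Universal PBM Analysis Suite, every ungapped 8-mer received an enrichment E-score averaged over duplicate arrays. Probe intensities came from double-stranded Universal Agilent oligonucleotide arrays incubated with 200 nM GST-fused Tbr T-box DNA-binding domain in PBS (pH 7.5). That protein was expressed in BL21 E. coli at 20 °C and purified by glutathione affinity chromatography.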

Sequence	PBM E-score of 8-mer
AACCTGAC	0.121 ± 0.003
AGACCTCA	0.1 ± 0.022
ATGGCTCA	-0.0768 ± 0.0097
AATGTCCT	-0.182 ± 0.085
AGGTACTC	0.025 ± 0.059
ACCTGCGG	0.0628 ± 0.089
CGCATGCC	-0.243 ± 0.062
CACGATCA	0.233 ± 0.025
AGCTGAAA	-0.143 ± 0.04
GTAGGCCA	-0.211 ± 0.066
AGATGCTC	-0.204 ± 0.072
CAGTGGCG	0.283 ± 0.02
ACGTGTTG	0.367 ± 0.00092
CGTCCCAG	-0.147 ± 0.019
CGACATAA	0.00045 ± 0.028
ACCGATGG	-0.0937 ± 0.019
AGCTATAC	-0.146 ± 0.0067
GAAGTTGC	0.157 ± 0.0091
CTCGCAGC	0.164 ± 0.029
GATAACAA	0.27 ± 0.027
GAAGACTA	-0.1147 ± 0.00035
GATGGCCC	-0.0565 ± 0.029
GCTACTTA	-0.197 ± 0.0028
ACTAACGG	0.184 ± 0.028
ATGGCGTA	-0.0961 ± 0.0076

Sequence	PBM E-score of 8-mer
CATGGTGA	0.157 ± 0.0046
GCGTCCCC	0.00456 ± 0.02
AGGGTGGC	0.175 ± 0.056
CGCTCGAG	-0.163 ± 0.035
GACTGAGA	-0.163 ± 0.0075
CTACTCCA	-0.0404 ± 0.026
ACTCGCCT	0.0713 ± 0.046
ACCGACCT	0.0764 ± 0.062
CTCCACGC	0.0274 ± 0.067
CCCTAGTA	-0.122 ± 0.074
GACTCTGC	-0.1398 ± 0.00023
GGAATGTA	-0.184 ± 0.018
CTACCTAA	-0.245 ± 0.018
AGCTGGAC	-0.17 ± 0.059
AAAACTAC	0.0452 ± 0.013
AACAGGAT	-0.0627 ± 0.049
GGGCCAAC	-0.055 ± 0.057
CTTTGGCA	0.3 ± 0.042
AAAAGGAA	-0.00645 ± 0.021
CCAATGTC	0.0383 ± 0.068
ACCGGACC	-0.14 ± 0.028
CATGGCTC	-0.00838 ± 0.041
CCCAGGGC	-0.114 ± 0.057
GGTCAAAA	-0.22 ± 0.035
CATGTGAA	0.218 ± 0.0025

Sequence	PBM E-score of 8-mer
GTGACATA	0.292 ± 0.019
CTCCAGAG	-0.1883 ± 0.00025
CCTCCTAG	-0.129 ± 0.066
AGGACTGG	-0.282 ± 0.072
AATTCAAA	-0.135 ± 0.021
ACCAAGGG	-0.055 ± 0.07
GGGTGTAA	0.386 ± 0.0076
AGGGTGCC	0.267 ± 0.013
GGTCGCGA	0.335 ± 0.017
ATAGTCAA	-0.0249 ± 0.04
CACAAAGG	-0.124 ± 0.044
AGCAGACA	0.0593 ± 0.041
ACGGACAT	-0.0905 ± 0.036
CCACAGCC	-0.0536 ± 0.0064
CCCAGTCC	-0.159 ± 0.062
CCCACTGA	-0.2 ± 0.018
CACGGAAA	0.00884 ± 0.029
ATCACAAT	0.212 ± 0.042
TAGATGGA	-0.216 ± 0.0073
GAGTCCGC	-0.156 ± 0.013
GGACGCAC	0.0226 ± 0.0051
GTAGAATA	-0.156 ± 0.016
TCCACGCA	0.223 ± 0.051
ACGTGACG	0.311 ± 0.052
CTAGCAAC	0.226 ± 0.0097

Sequence	PBM E-score of 8-mer
CAGCTCGG	-0.132 ± 0.057
ACACGAAT	0.0562 ± 0.031
GTATCGGA	0.0214 ± 0.043
AAGCCAGA	-0.361 ± 0.047
AACCTAAT	-0.165 ± 0.011
ACTACCGA	-0.178 ± 0.036
ATTCCGCG	0.0565 ± 0.061
AATATGAA	-0.127 ± 0.096
CTGCCTGA	-0.304 ± 0.01
AGTTTTAG	0.158 ± 0.011
GTTACTTA	-0.0186 ± 0.0063
GCGCCCGA	0.075 ± 0.0029
AAGACGCA	0.0881 ± 0.014
TAGCGACA	0.308 ± 0.024
CACCAGAG	0.157 ± 0.016
AAATAAGG	-0.202 ± 0.049
AGCTCCAC	0.0522 ± 0.059
AGGAAGAC	-0.135 ± 0.086
ACACGATG	0.194 ± 0.024
GGTATAAC	-0.0329 ± 0.043
ACGCCTCA	0.331 ± 0.01
ATCGGCGC	0.0488 ± 0.056
GCATTAAC	0.0789 ± 0.044
TCGGGGCA	-0.271 ± 0.015
TCATCGGA	-0.202 ± 0.0093

Sequence	PBM E-score of 8-mer
GTGCTTAA	-0.00664 ± 0.045
CCAGAAGG	-0.0595 ± 0.017
ACATTTTC	0.112 ± 0.042
GACCTCCC	-0.159 ± 0.12
TAGGATAA	-0.162 ± 0.0092
CGCTAACC	0.19 ± 0.0091
ATCGTCAC	0.381 ± 0.011
GGACATGA	-0.0912 ± 0.042
ATCCTAAA	-0.337 ± 0.039
ACAACTAA	0.155 ± 0.064
GCAAGTCA	0.163 ± 0.0037
ACTGACAA	0.165 ± 0.0096
ACCTAATA	0.0744 ± 0.042
AGTCGGGC	-0.0442 ± 0.069
ACTGCTCC	-0.0216 ± 0.055
GGAGCTGA	-0.203 ± 0.042
AACGCGTG	0.309 ± 0.034
AGGTTCAG	-0.00225 ± 0.011
CTTCCTCC	-0.204 ± 0.065
CTTAAAAA	-0.117 ± 0.16
AAGTCACC	-0.102 ± 0.077
CTAAGCTA	-0.202 ± 0.023
ACGTCGGA	0.0819 ± 0.03
ACAGCTGA	0.0609 ± 0.041
AGAATTAT	-0.182 ± 0.066

Sequence	PBM E-score of 8-mer
CGCGCCGC	0.264 ± 0.03
CATGGACG	-0.0352 ± 0.046
CTGTGCCA	0.0323 ± 0.097
CGCTCCCG	-0.0657 ± 0.016
ACCAACCC	-0.129 ± 0.036
CTTAGATC	-0.11 ± 0.11
CTGAACAA	-0.0667 ± 0.0045
CGAAATCG	0.2456 ± 0.0015
AAGGGTAA	-0.088 ± 0.0016
GATGGTCA	-0.2479 ± 0.00035
AAATCAGG	-0.253 ± 0.14
CCAGAGGA	0.0396 ± 0.008
CCGAACGC	-0.0118 ± 0.08
ACACGAGG	0.0971 ± 0.016
CCTCCGAG	-0.0637 ± 0.023
TGCAAGAA	-0.0626 ± 0.014
GAATGGAA	-0.209 ± 0.062
GGATCGGA	-0.194 ± 0.042
CACGTCAC	0.279 ± 0.04
GGGATCCA	-0.104 ± 0.035
CGTGTAGA	0.0779 ± 0.011
CAATATAA	0.00368 ± 0.12
TGCGAGCA	0.203 ± 0.026
CGTACGGC	-0.245 ± 0.017
ATATAACG	0.0543 ± 0.025

Sequence	PBM E-score of 8-mer
AGGTGACG	0.453 ± 0.0078
AAGAGTCG	-0.0522 ± 0.054
CCCGAGAA	0.0759 ± 0.023
ATACCCAG	-0.0897 ± 0.035
ATTGAACA	0.00183 ± 0.03
ACGGCTAG	0.0477 ± 0.031
GGTGACTA	0.196 ± 0.039
CCTGATGC	0.028 ± 0.01
AACCCATT	-0.177 ± 0.02
ACTGTATG	0.0126 ± 0.017
CGGCCAGA	-0.239 ± 0.051
GGGTCCCA	-0.11 ± 0.006
CCGGCACG	0.0831 ± 0.0094
CGGCTAAG	-0.179 ± 0.0048
AAAGCTAG	0.0291 ± 0.063
CTCGAGGC	0.0155 ± 0.045
CCCCGCAG	0.00123 ± 0.069
CCTCTATA	-0.145 ± 0.017
ACGAAAAA	0.0295 ± 0.058
CGCAGCGA	0.123 ± 0.085
CGCGCGTC	0.285 ± 0.0037
ATTGTCGC	0.263 ± 0.028
